# The supplement of paper PMC7726561
# Whole data set: some 1,100 sequences, median “thermal melting temperature (Tm) of peptide-HLA complex” near 58, cut for the lowest 2% near 42. The list shows a part of the results.
# Molecular target: HLA-A*02:01
# Assay: thermal melting temperature (Tm) of peptide-HLA complex; higher = more thermostable pHLA complex
# Conditions: C1R-A*02:01
# 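Note: cell lysates heated 10 min at 37–73 °C, remaining pHLA pulled down with pan-class I antibody, peptides quantified by DIA-MS versus 37 °C, Tm where half the complex is lost.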
row,Sequence,thermal melting temperature [°C]
1,TLLKDAAKV,53.6
2,GLDRLNVTV,59.5
3,ALSKEGIVAL,59.5
4,VILDPVHSV,58.3
5,RLFSSIVTV,63.8
6,SQLDISDPYKV,55.4
7,FLLGPRLVLA,58.6
8,ALNIATHVL,54
9,GLHGWAFTL,57
10,RVLPPSALQSV,63.4
11,ILDEAIYKV,61.4
12,NLYEEWTQV,59.9
13,NMVAKVDEV,55.1
14,RLGEAEGLMKV,56.4
15,QLIDKVWQL,64.6
16,GQSELASRLTL,55
17,SLIKQIPRI,56.5
18,GLTSTDLLFHL,60.9
19,NIVEKLREV,57.9

row,Sequence,thermal melting temperature [°C]
1,ALVQDLAKA,64.6
2,GLLRDEALAEV,64.5
3,GLDIEGVKTV,53.6
4,ALMDEVVKA,59.6
5,RLIDLPGTEL,55.6
6,KLFPDTPLAL,47.6
7,LMDHTIPEV,60.3
8,RLFNDPVAMV,58
9,GLFPTSHSV,58.9
10,ALSSSSIRV,44.3
11,YLSKIIPAL,63.8
12,GMDRYLIYV,60.9
13,QLMPLPVKV,53.2
14,ATDPTIHTV,47.1
15,SLLQTLYKV,63.6
16,AATEIVERV,53.2
17,GLLSIFTKV,59.5
18,QLSPRLLEV,59.4
19,NLYPFVKTV,59.3

row,Sequence,thermal melting temperature [°C]
1,GIMKKAYEL,59.4
2,GLLDNPELRV,56.3
3,FLFEPVVKA,61.5
4,LLVDVEPKV,55.5
5,KLNPQQFEV,61.7
6,SVYSRVIQV,57.1
7,KVLGIVVGV,61
8,ALADGVQKV,63
9,NLLPKLHIV,61.2
10,HLIEPLANA,58.4
11,YMAELIERL,59.1
12,QLLSEITRV,59.3
13,SLSQHNDFL,56.1
14,GLDVDGIYRV,54.8
15,SLYSQVHQI,60.2
16,SLYDQAEKLVS,58.7
17,ALAAPDIVPAL,59.8
18,TLDDKKVYL,55.6
